Experiment [1] concerns the target T1, recombinant human CSF1R-His (Biolegend) (human, UniProt P07333 part only, limits assumed).
T1 construct: Bought protein; also called CSF1R-His (monomer); hu-CSF1R; not shown: His tag
Kind of experiment: BLI (Octet RED96), antibody captured on AHC biosensor, CSF1R-His in solution, 1:1 model. The procedure:
Kinetic rate constants, ka and kd, for binding of 6D4 and 6M6 to CSF1R were measured by Bio-Layer Interferometry (BLI) (ForteBio Octet RED96). The BLI assay was performed using AHC (Anti-hIgG Fc Capture) biosensors (ForteBio) to capture each anti-CSF1R antibody (2 μg/mL) to acquire a 0.5 nm shift and then the biosensors were dipped into varying concentrations (i.e. 0, 0.549, 1.65, 4.94, 14.8, 44.4, 133.3 and 400 nM) of recombinant CSF1R-His protein in running buffer containing PBS-Tween 20 (0.1%), BSA (0.1%). Rate constants were calculated by curve fitting analyses (1:1 Langmuir model) of binding response with a 5-minute association and 15-minute dissociation interaction time.
In general terms: Biolayer interferometry detects binding as a change in optical thickness at a sensor tip.

Experiment [2] deals with T1, recombinant human CSF1R-His (Biolegend). In words: ELISA, coated human CSF1R-His (monomer). The procedure: (§1) Materials and methods: Recombinant human CSF1R-His (Biolegend), or CSF1R-Fc fusion protein, were immobilized on 96 well microtiter plate at a concentration of 1 μg/mL in Coating Solution (SeraCare) overnight at 4° C. The wells were washed with wash solution (0.05% Tween20 in imidazole-buffered saline) and blocked with 1% BSA. Serial dilutions of the antibodies were added to wells. After incubation at 3TC for 1 h, the wells were washed with wash solution. Peroxidase-conjugated goat anti-human kappa light chain antibody (Bethyl) was applied to each well at 3TC for 1 h incubation. After washing, the wells were developed with TMB substrate for 5-10 min at RT and then stopped with 1 N HCl. Thereafter absorbance was measured at 450 nm and 650 nm. The EC50 values were calculated through GraphPad Prism7.
T1 sequence (P07333 20-512 limits assumed): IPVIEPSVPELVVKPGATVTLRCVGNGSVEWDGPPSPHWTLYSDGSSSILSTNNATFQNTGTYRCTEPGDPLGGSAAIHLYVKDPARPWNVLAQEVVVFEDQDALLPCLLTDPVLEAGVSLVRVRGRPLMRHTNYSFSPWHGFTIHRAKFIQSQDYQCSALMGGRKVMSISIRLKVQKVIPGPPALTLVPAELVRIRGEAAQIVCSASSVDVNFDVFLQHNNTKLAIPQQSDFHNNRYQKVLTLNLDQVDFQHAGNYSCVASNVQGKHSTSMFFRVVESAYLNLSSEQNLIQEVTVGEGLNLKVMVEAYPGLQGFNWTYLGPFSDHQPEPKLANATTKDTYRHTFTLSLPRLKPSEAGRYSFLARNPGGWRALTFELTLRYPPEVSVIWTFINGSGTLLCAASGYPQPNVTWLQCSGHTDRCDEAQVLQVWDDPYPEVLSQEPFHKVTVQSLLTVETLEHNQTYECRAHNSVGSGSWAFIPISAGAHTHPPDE
(In an ELISA, binding on a coated surface is turned into a signal by an enzyme label.)

Experiment [3] concerns the target T2, recombinant human CSF1R-Fc fusion protein (human, UniProt P07333 part only).
T2 construct: probably the same protein; also called CSF1R-Fc (dimer); not shown: Fc part
Kind of experiment: ELISA, coated human CSF1R-Fc (dimer). On the procedure:
as §1

Experiment [4] concerns the target T3, human CSF1R expressed on cells (293F/huCSF1R stable cells; AML5 cells; human monocytes and macrophages) (human, UniProt P07333 20-972). Kind of experiment: cell-based or functional assay.
Experiment [5] has as its target T3, human CSF1R expressed on cells …. Kind of experiment: cell-based or functional assay. This is another data set of the same source.
Experiment [6] addresses T4, cynomolgus CSF1R expressed on 293F cells (cynomolgus monkey, UniProt P07333 20-972 (human entry)).
T4 construct: also called cynoCSF1R
T4 chain: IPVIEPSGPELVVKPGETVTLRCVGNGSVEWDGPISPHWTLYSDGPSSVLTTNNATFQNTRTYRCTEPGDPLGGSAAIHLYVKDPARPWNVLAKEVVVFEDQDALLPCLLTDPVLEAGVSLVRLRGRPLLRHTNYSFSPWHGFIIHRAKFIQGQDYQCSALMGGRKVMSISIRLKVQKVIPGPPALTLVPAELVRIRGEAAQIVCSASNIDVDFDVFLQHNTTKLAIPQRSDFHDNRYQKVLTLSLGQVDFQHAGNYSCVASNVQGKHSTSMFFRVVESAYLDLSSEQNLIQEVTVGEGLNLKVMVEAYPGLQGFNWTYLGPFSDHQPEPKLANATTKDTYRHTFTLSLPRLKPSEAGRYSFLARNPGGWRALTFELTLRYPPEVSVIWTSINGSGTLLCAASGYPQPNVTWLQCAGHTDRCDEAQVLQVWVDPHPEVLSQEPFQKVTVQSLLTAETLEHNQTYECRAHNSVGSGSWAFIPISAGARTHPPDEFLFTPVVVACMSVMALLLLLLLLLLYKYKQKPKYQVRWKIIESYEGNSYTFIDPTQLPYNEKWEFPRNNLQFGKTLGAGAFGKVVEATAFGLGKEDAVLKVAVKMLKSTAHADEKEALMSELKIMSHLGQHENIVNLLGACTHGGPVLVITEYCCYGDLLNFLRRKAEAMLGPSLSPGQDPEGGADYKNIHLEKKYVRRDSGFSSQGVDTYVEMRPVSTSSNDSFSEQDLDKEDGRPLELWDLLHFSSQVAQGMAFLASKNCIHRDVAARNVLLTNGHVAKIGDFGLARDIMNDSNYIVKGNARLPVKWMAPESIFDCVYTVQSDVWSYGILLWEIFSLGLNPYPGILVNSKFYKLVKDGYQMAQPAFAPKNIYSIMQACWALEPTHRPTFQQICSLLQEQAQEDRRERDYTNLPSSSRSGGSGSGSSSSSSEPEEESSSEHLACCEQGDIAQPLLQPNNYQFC
In words: flow cytometry on 293F cells expressing cynomolgus CSF1R. From the text: Materials and methods: The gene segments encoding full-length human CSF1R amino acid sequence of SEQ ID NO: 70 or the cynomolgus CSF1R amino acid sequence of SEQ ID NO: 71 were obtained using Thermo gene synthesis service and cloned in a mammalian expression vector pCDNA3.4. […] After washing with FACS buffer (2%FBS in PBS), the cells were stained with anti-human IgG—Alexa Fluor 647 and analyzed by Attune NxT Flow Cytometer (Thermo Scientific).
(A flow cytometer gives signals particle by particle.)

The target of experiment [7] is T3, human CSF1R expressed on cells …. Kind of experiment: cell-based or functional assay. This is another data set of the same source.
Experiment [8] shares this target. In words: cell-based or functional assay. This is another data set of the same source.
The target of experiment [9] is T2, recombinant human CSF1R-Fc fusion …. Kind of experiment: ELISA, coated human CSF1R-Fc. The procedure:
Materials and methods: Recombinant human CSF1R-Fc, or mouse CSF1R-Fc (Sino Biological) were immobilized on 96 well microtiter plate at a concentration of 1 μg/mL in Coating Solution (SeraCare) overnight at 4° C. The wells were washed with wash solution (0.05% Tween20 in imidazole-buffered saline) and blocked with 1% BSA. Serial dilutions of the anti-CSF1R/IL-10 fusion proteins were added to wells. After incubation at 3TC for 1 h, the wells were washed with wash solution. To detect chimeric Ab/IL10 fusions, peroxidase-conjugated goat anti-human kappa light chain antibody (Bethyl) was applied to each well at 3TC for 1 h incubation. To detect AB98 or AB98/1110 fusions, peroxidase-conjugated Goat anti-mouse IgG Fab antibody (Jackson immunoresearch) was applied to each well at 3TC for 1 h incubation. After washing, the wells were developed with TMB substrate for 5-10 min at RT and then stopped with 1 N HCl. Thereafter absorbance was measured at 450 nm and 650 nm.

In experiment [10] the target is T4, cynomolgus CSF1R expressed on 293F cells. Kind of experiment: flow cytometry titration on 293F cells overexpressing cynomolgus CSF1R, anti-human IgG-Alexa Fluor 647. From the text: Materials and methods: The gene segments encoding full-length human CSF1R or cynomolgus CSF1R were obtained using Thermo gene synthesis service and cloned in a mammalian expression vector pCDNA3.4. […] After washing with FACS buffer (2%FBS in PBS), the cells were stained with anti-human IgG-Alexa Fluor 647 and analyzed by Attune N×T Flow Cytometer (Thermo Scientific).

Experiment [11] concerns the target T5, recombinant human IL-10Ra fusion protein (R&D Systems) (human, UniProt Q13651 22-235).
T5 sequence (looked up): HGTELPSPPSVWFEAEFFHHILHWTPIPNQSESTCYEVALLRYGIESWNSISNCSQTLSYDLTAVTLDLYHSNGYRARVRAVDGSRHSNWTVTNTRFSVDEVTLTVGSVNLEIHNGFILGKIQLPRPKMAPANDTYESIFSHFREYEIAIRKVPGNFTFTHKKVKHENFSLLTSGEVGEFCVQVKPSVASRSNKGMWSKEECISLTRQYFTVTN
In words: ELISA, coated human IL-10Ra fusion protein. The procedure: Materials and methods: Recombinant human IL-10Ra fusion protein (R&D Systems) were immobilized on 96 well microtiter plate at a concentration of 1 μg/ml in Coating Solution (SeraCare) overnight at 4° C. The wells were washed with wash solution (0.05% Tween20 in imidazole-buffered saline) and blocked with 1% BSA. Serial dilutions of Ab/IL-10 fusion proteins were added to wells. After incubation at 37° C. for lhr, the wells were washed with wash solution. Peroxidase-conjugated goat anti-human kappa light chain antibody (Bethyl) was applied to each well at 37° C. for 1 hr incubation. After washing, the wells were developed with TMB substrate for 5-10 min at RT and then stopped with 1 N HCl. Thereafter absorbance was measured at 450 nm and 650 nm. The EC50 value was calculated through GraphPad Prism7.

In experiment [12] the target is T2, recombinant human CSF1R-Fc fusion …. Kind of experiment: competition ELISA, coated human CSF1R-Fc, competitor biotinylated human CSF1-His 2.5 ug/mL. On the procedure: Materials and methods: Recombinant human CSF1R-Fc or mouse CSF1R-Fc (Sino Biological) fusion protein was immobilized on 96 well microtiter plate at a concentration of 1 μg/mL in Coating Solution (SeraCare) overnight at 4° C. The wells were washed with wash solution and blocked with 1% BSA at RT. Serial dilutions of Ab/IL-10 fusion proteins were added to wells. Then 2.5 ug/mL biotinylated human CSF1-His (Biolegend) or mouse CSF1-His (Sino Biological) was added and incubated for 1 h at 37° C. After washing, Streptavidin-HRP (Jackson ImmunoResearch) was applied to wells at RT for 1 h incubation. After washing, the wells were developed with TMB substrate for 5-10 min at RT and the stopped with 1 N HCl. Thereafter absorbance was measured at 450 nm and 650 nm. The IC₅₀ values were calculated through GraphPad Prism7.

Experiment [13] has as its target T3, human CSF1R expressed on cells …. Kind of experiment: cell-based or functional assay. The source holds these as a separate data set.

From patent publication US20210403583A1 (ELIXIRON IMMUNOTHERAPEUTICS HONG KONG, published 2021) come the findings set out here.

Like-named read-outs stand apart in the source and are kept apart here.

B1: chimeric anti-CSF1R antibody 6M6 (antibody, human IgG1, kappa)
heavy: DVQLQQSGTVLARPGASVKMSCKASGYTFTSYWIHWVKQRPGQGLEWIGAIYPGNRDTNYNQKFKGKAKLTTVTSASTAYMELSSLTNEDSAVYYCTGAFAGYYDWYFDVWGAGTTVTVSS[letters of human IgG1 constant region left out]
light: DIVLTQSPASLAVSLGQRATISCKASQGVDYAGDSYMNWYQQKPGQPPKLLIYVASDLDSGIPARFSGSGSGTNFTLNIHPVEEEDAATYYCQQSYEDPRTFGGGTTLEIQRTVAAPSVFIFPPSDEQLKSGTASVVCLLNNFYPREAKVQWKVDNALQSGNSQESVTEQDSKDSTYSLSSTLTLSKADYEKHKVYACEVTHQGLSSPVTKSFNRGEC
As for B1, in [1], the koff (in general, a measure of how fast the partners let go of each other) was determined as 0.000223 s⁻¹ and the kon (in general, the second-order rate constant of association) amounted to 688000 M⁻¹ s⁻¹. The EC50 – broadly, the concentration at which the effect is half-maximal – in experiment [2] was determined as 0.112 nM. Moreover, the EC50 in [3] came to 0.0653 nM. Moreover, in experiment [4], the “IC50 (M), CSF1-dependent AML5 cell proliferation” value was 2.73e-10 M. Also, the “IC50 (M), inhibition of CD14+ monocyte survival (CSF1-dependent)” value in [5] amounted to 2.24e-10 M. Further, the binding result in experiment [6] is “binds”. In addition, in [7], the “IC50 (M), CSF1-dependent AML5 cell proliferation” value amounted to 2.73e-10 M and the “IC50 (M), IL-34-dependent AML5 cell proliferation” value stood at 2.01e-10 M. Further, in [8], the “IC50 (M), CSF1-dependent survival of CD14+ monocytes” value came out at 1.44e-10 M and the “IC50 (M), CSF1-dependent survival of macrophages” value was 7.2e-11 M.

B2: chimeric anti-CSF1R/IL10 fusion protein 6M6/IL10 (antibody, human IgG1, kappa)
heavy: DVQLQQSGTVLARPGASVKMSCKASGYTFTSYWIHWVKQRPGQGLEWIGAIYPGNRDTNYNQKFKGKAKLTTVTSASTAYMELSSLTNEDSAVYYCTGAFAGYYDWYFDVWGAGTTVTVSS[letters of human IgG1 constant region left out]LGGGGSGGGGSGGGGSPGQGTQSENSCTHFPGNLPNMLRDLRDAFSRVKTFFQMKDQLDNLLLKESLLEDFKGYLGCQALSEMIQFYLEEVMPQAENQDPDIKAHVNSLGENLKTLRLRLRRCHRFLPCENKSKAVEQVKNAFNKLQEKGIYKAMSEFDIFINYIEAYMTMKIRN
light: B1 light
notes: Antibody-cytokine fusion: human IL10 fused by a linker to the C-terminus of the heavy chain; also called 6M6/1L10
For the molecule B2, the EC50 in experiment [9] stood at 0.27 nM; in experiment [11], 2.75 nM. Moreover, the binding result in experiment [10] is given as “binds”. Also, the “IC50 (M), inhibition of CD14+ monocyte survival (CSF1-dependent)” value in experiment [5] came to 2.82e-10 M. In [5], the “IC50 (M), inhibition of macrophage survival (CSF1-dependent)” value is 1.89e-10 M. The IC50 – broadly, the concentration at which inhibition is half-maximal – in experiment [12] amounted to 0.481 nM. Moreover, the “IC50 (M), inhibition of AML5 cell proliferation (CSF1-dependent)” value in experiment [13] amounted to 1.87e-09 M.
